Data from publication PMC12136788.
Some of the results follow.

B1: chr8:104447970:104447971:+_ENSG00000164934_ENST00000297579|hu_hu|hu_hu_hu_mus_False|8_98 (ssRNA)
RNA: GGGAGUUCUACAGUCCGACGAUCAUACACUUCCCUGCUUCGACUUUUGUCCACAGGAAAGAUUCUAAUAGACUUAUCAAAGCUGGCAGACACAAAUUCCUUCCCAGUGGGAGAGUAGUCCACAUCAAGCACUGCAGACACGUGCAACAGAGGAUUGAGCAUCA
B2: chr3:41267201:41267202:+_ENSG00000168036_ENST00000349496|hu_mus|FALSE|FALSE (ssRNA)
RNA: GGGAGUUCUACAGUCCGACGAUCCAAGAAUUUCACGUUUGUUUUGUUGAGCAAAGCAACCAUUUUCUGCAGUCCACCAGCUAGGCGCACUGCCAUUUUAGCUCCUUCCUGAUGGAGCAGGAGAUUAUGCAGUGUCGUGAUGGCCAACAGAGGAUUGAGCAUCA
B3: chr12:93870747:93870748:+_ENSG00000198015_ENST00000552217|hu_mus|motif|central (ssRNA)
RNA: GGGAGUUCUACAGUCCGACGAUCGUCCACCUGGCAAUUGUAGUCAUCCGGAAGAGAAGAGUAUGUGGAUUUGUGACAAGCACGGGACAAAGCUCCGUUUUGGAUUGGAAGUAAAUGCUUCCAGAUAGUUCUGUUUGAUAUCGCCAACAGAGGAUUGAGCAUCA
B4: chr11:116399779:116399780:-_ENSMUSG00000020802_ENSMUST00000082152|mus_mus|motif|central (ssRNA)
RNA: GGGAGUUCUACAGUCCGACGAUCAGGGCUGCAGCCUCUCCUGGUGUCCUAUCCUCUCUUAGAGAGUAAGUUCAAUAGGCCGGAGGGCUAUAACGCACUGGCAGGCCAGAGCCAGCCACAGCAGCCACAGCUCCGAGAUGGAGGCAACAGAGGAUUGAGCAUCA
B5: chr5:92853364:92853365:-_ENSMUSG00000034826_ENSMUST00000038514|mus_mus|FALSE|FALSE (ssRNA)
RNA: GGGAGUUCUACAGUCCGACGAUCGUUUUGUAAGAGCUGCUUGAUCUGAGCGGGAGACAGCUCUGUCCUGGUCAUAGAAAGGGUCACCCCAAGCUGCUGCAGCUGGGCUUUAAUGUUGGCUUGCUCAAAGUGGGCAUACAGUGUCAACAGAGGAUUGAGCAUCA
B6: chr5:37680062:37680063:+_ENSMUSG00000029121_ENSMUST00000031004|mus_hu|mus_mus_mus_hu_False|58_58 (ssRNA)
RNA: GGGAGUUCUACAGUCCGACGAUCUUUGGGUGUAGCUGGUACCUCGUACACAGGACCGUCAUACAUGCCCCUGGAAACACUAUGCAAUCCAAAAACCUUAUUCCUGAUUUUGACGCGCUGGUACAGGUGCUCCGGGAACGCCUUCAACAGAGGAUUGAGCAUCA
B7: 56981117_56985166_585_CDS_ENSMUSG00000045589_ENSMUST00000053681|mouse|control|control (ssRNA)
RNA: GGGAGUUCUACAGUCCGACGAUCGAAGUGCUGUAUGCGGACUCUGCCAUUGUCAUCAUGGACGCAGGCCAUGACAUCGUCACCACCCAUCUUUUUGUCUGAAGAGAAUCCAACCGCGACCCAACCAUCUGUGUCUGCACUCAGCAACAGAGGAUUGAGCAUCA
B8: chr12:105536279:105536280:+_ENSG00000136051_ENST00000332180|hu_mus|hu_hu_hu_mus_True|38_78 (ssRNA)
RNA: GGGAGUUCUACAGUCCGACGAUCAGCACUGAACAUGUAAUGUAAUCUGGCUGCAUCAACAGCAUUUUCAUAUACAUCAUCUAAAUAAAUCGGGAAGACAGCUCGAUGCCAGUAUAAAAAACAGCAGUCACACUGUGCUUGGACCAACAGAGGAUUGAGCAUCA
B9: 112367391_112373583_1708_CDS_ENSMUSG00000031731_ENSMUST00000093157|mouse|control|control (ssRNA)
RNA: GGGAGUUCUACAGUCCGACGAUCCACACUGUUGGUUAUUAACUGAAUCAAGUUAGGAACUGCAUCAUCGCGAACAUAACUUCCUGCCGUUGUCAAGACACGCAUAAUUGUAUCUAUAUGCCACCGUUUGGAAGGUGCGUACUUCAACAGAGGAUUGAGCAUCA
B10: 168281138_168289955_895_3pUTR_ENSG00000130396_ENST00000400822|human|control|control (ssRNA)
RNA: GGGAGUUCUACAGUCCGACGAUCCAAGAAUAAUUUCUUUAGCACCCUUUUCAUCAGAAUGCUGGGCUCCAGGAGGAAGCAUAACCCGGGCGAUGCAGUAAUCCUUAGGGUUUUCUUUUUCCAGACCAUACUUCUCUAAAGCUUCAACAGAGGAUUGAGCAUCA
B11: chr2:179515052:179515053:+_ENSMUSG00000000305_ENSMUST00000000314|mus_hu|mus_mus_mus_hu_False|78_78 (ssRNA)
RNA: GGGAGUUCUACAGUCCGACGAUCGCUGUCCCAUGCAGUCACCGUGAACGCCACCUGCUCUGAGGGGACCUGCAGCUCCCGGGUGGCGAAGACUGUCCCAUCUGCCCCAACUUUGAAGUCCAUGCUGUUGGUCUCAUAUUGUGUCAACAGAGGAUUGAGCAUCA
B12: chr17:53623224:53623225:+_ENSMUSG00000017831_ENSMUST00000017975|perfect_dup|FALSE|FALSE (ssRNA)
RNA: GGGAGUUCUACAGUCCGACGAUCGGCCCGUUGGGUCUUGUUGCGCCUCGACUAGCCAUGUCCAAAUUUGAAAUAAGUCCCUAAUUUCAGACUCUUCAAUGAACUUCCAGAAUUCAAGGGGCCAAUAUUCUUCUUUCUGGAGGUCAACAGAGGAUUGAGCAUCA
B13: chr4:115894766:115894767:+_ENSMUSG00000028698_ENSMUST00000030464|mus_hu|mus_mus_mus_hu_True|68_108 (ssRNA)
RNA: GGGAGUUCUACAGUCCGACGAUCUUCACACGGAAAUUGUACUUCGGGUUUUCCAACGGCCAGUACCGUCCAGCCAAAACUACCCGAACAGGGUCCUCCCCCUCUCUCCUACAGAACACAACAAAAUGCCCCCGAACUUUCAAGCAACAGAGGAUUGAGCAUCA
B14: chr13:42873775:42873776:+_ENSG00000023516_ENST00000025301|hu_hu|FALSE|FALSE (ssRNA)
RNA: GGGAGUUCUACAGUCCGACGAUCAGAAGACGAAAAAAAUGUUUUCUGUAAAUCACUAUCUUUAUCUGAAGCAUUAGAUGACCUAUAGAAACUCCUUUGGGUCCAAGGCUCUGAAAUUGAUGUUGUGACUGAAGUUUUCACAGACAACAGAGGAUUGAGCAUCA
B15: chr2:14037654:14037655:+_ENSMUSG00000026718_ENSMUST00000102960|mus_mus|FALSE|FALSE (ssRNA)
RNA: GGGAGUUCUACAGUCCGACGAUCAUGACCCUUAUUUAAUACAUUGCUUACUUCACUAGCAAAGUCUCUUGAACAUACUUCUAAGUGAAAAAUUUUGCCACAGUUUGAUACACAUGCUCCCAGAAGAGUUAAGGCUUGCAUAGCCAACAGAGGAUUGAGCAUCA
B16: 49510474_49510594_1284_3pUTR_ENSG00000101126_ENST00000396029|human|control|control (ssRNA)
RNA: GGGAGUUCUACAGUCCGACGAUCUUUGUGUGCCCAAUCAUGGCAGUGACCUGAUAGCCUAUACGUUCAUGGUCUUCGAUGACAUGCUGUACCAAAGCUUCAUAGGACUUUGGCAUGAAAAGGCAUCGCUUGCAGUGAAUACUACAACAGAGGAUUGAGCAUCA
B17: chr13:21172813:21172814:+_ENSG00000032742_ENST00000351808|hu_mus|FALSE|FALSE (ssRNA)
RNA: GGGAGUUCUACAGUCCGACGAUCAAUAUUUCCCAUAUUCACUUUCAGUCUUCCUGCAUUGCUAAACAUCUUGUUUUUCACUAUAACUUGGUAUGUGUUCAGUGCUUCUGCAUACAUUUCAUUAGCAGAAUACUGACUGGCCAACAACAGAGGAUUGAGCAUCA
B18: chr22:19452774:19452775:-_ENSG00000070010_ENST00000399523|hu_hu|hu_hu_hu_mus_False|98_108 (ssRNA)
RNA: GGGAGUUCUACAGUCCGACGAUCCUUUUCAUUAUAGUUGAUGGCAAUCACAUCUCCAGUCGUCAGACAGGCGAAGUUUCUCAAUGCAUUUUCUAAUACCGCUUUAGGGUUGGUAAUAUCCAGGAAGUCUGGGCUCUGAGGCUGCAACAGAGGAUUGAGCAUCA
B19: chr10:17279241:17279242:+_ENSG00000026025_ENST00000224237|hu_hu|motif|central (ssRNA)
RNA: GGGAGUUCUACAGUCCGACGAUCUUUUUAUUCAAGGUCAUCGUGAUGCUGAGAAGUUUCGUUGAUAACCUGUCCAUCUCGGGUUUCAACCGUCUUAAUCAGAAGUGUCCUUUUUGAGUGGGUAUCAACCAGAGGGAGUGAAUCCAACAGAGGAUUGAGCAUCA
B20: chr12:39763582:39763583:-_ENSG00000139116_ENST00000544797|hu_mus|hu_hu_hu_mus_False|1_58 (ssRNA)
RNA: GGGAGUUCUACAGUCCGACGAUCCUCUAGGAACUGGGCAUUCACUUUGAAUUCAGGAGGGGGCAGCCCGUUUUUAAUUGCUAUGUGCUUUUUCUCAUCAAUACUCUUGAACAGGUGUCUAACAGCACGAGAGAUGAUACCCAGCAACAGAGGAUUGAGCAUCA
B21: chr2:47387770:47387771:-_ENSG00000143933_ENST00000272298|hu_mus|hu_hu_hu_mus_True|1_18 (ssRNA)
RNA: GGGAGUUCUACAGUCCGACGAUCAAGGUUUAAGGACAAUGACAGUAAGAUAAGGGAAGAAAACAUGGAGGAAUGAAGUCCUAAUUACUAUACAUGCAUAUUUUUUGACAGUAGGGGAGAAACCUUUUUUACAGAUAUUACAAACAACAGAGGAUUGAGCAUCA
B22: 145533498_145537040_1022_CDS_ENSG00000133706_ENST00000545646|human|control|control (ssRNA)
RNA: GGGAGUUCUACAGUCCGACGAUCCUUGUAUGAUGUUAAAGGUGCAGAAAGUGAUGCACCAAGAAUUUCCUCCCCCAUUAAUUCCUUAACAACAGGCACCACGCCAUUGUCUUUGGUAAAGCCCUGGUAUGACAUAUUCCUGGCCAACAGAGGAUUGAGCAUCA

Target: T1, UNK ZnF1-3 (human, UniProt Q9C0B0 31-174)
T1 sequence: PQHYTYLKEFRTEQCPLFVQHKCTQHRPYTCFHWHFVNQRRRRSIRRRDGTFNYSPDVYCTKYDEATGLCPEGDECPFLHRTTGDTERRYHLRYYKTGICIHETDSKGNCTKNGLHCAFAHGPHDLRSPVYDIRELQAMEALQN
Experiment: nsRBNS (natural sequence RNA bind-n-seq); RBNS binding buffer (assumed for nsRBNS): 25 mM Tris pH 7.5, 150 mM KCl, 3 mM MgCl2, 0.01% Triton X-100, 500 ug/ml BSA, 20 U/ml SUPERase-In, 4 C; UNK is unkempt and MSI1 is Musashi-1; names of the RNAs are library labels; protein concentration not given here; high values mean tight binding

Binder	binding signal [enrichment R]
B1	1.17
B2	0.383
B3	1.22
B4	0.726
B5	0.894
B6	0.601
B7	0.777
B8	2.84
B9	0.765
B10	0.899
B11	0.713
B12	1.09
B13	1.01
B14	0.809
B15	1.45
B16	0.607
B17	0.489
B18	0.873
B19	0.789
B20	1.58
B21	2.22
B22	1.47
